In PubChem BioAssay AID903 (National Center for Advancing Translational Sciences (NCATS), 2007):
About 340 (0.62%) of roughly 55,000 compounds were called active. The inconclusive results got no clear call from the source; some entries with a clear call stand among them for comparison. The call rests on the fitted dose curve; in most records, active means well fitted cell-killing curve with a large enough effect; inconclusive means small, poorly fitted or top-dose-only effect; inactive means no such curve, though single readings can be large or run the other way. A potency beside an inconclusive call is a rough fit, not a confirmed value.

Assay: qHTS Screen for Compounds that Selectively Target Cancer Cells with p53 Mutations: Cytotoxicity of p53 Null Cells at the Permissive Temperature; further: nearly all actives have a fitted effect of over 55% in size
Conditions: H1299-neo p53 null cells, ATP luminescence, 24 h, 32C; series mostly up to 46.1 µM
How it was run: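 H1299-neo (p53-null) cells, 600/well, were pre-incubated overnight at 37C, then exposed to compounds at up to 46 uM for 24 hr at 32C. Viability was measured as ATP content by luminescence, and AC50 values came from Hill fits.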
Potency means the concentration at half of the fitted maximal effect; tags describe the fitted curve by direction and shape.

SMILES | Potency
Cc1ccc(S(=O)(=O)NCC(Nc2cccc(Cl)c2)c2ccccc2)cc1 (centres undefined) | inconclusive: 31.6 µM [cytotoxic, single point]
CCOc1ccccc1C(=O)Nc1ccc2nc3c(c(Nc4ccc(OC)c(OC)c4)c2c1)CCCC3 | inconclusive: 20 µM [cytotoxic, single point]
CCN(c1ccccc1)S(=O)(=O)c1ccc2[nH]cc(C(=O)NC3CCCCC3)c(=O)c2c1 | inactive
Cc1nc2c(C(=O)NCc3ccccc3Cl)c[nH]n2c(=O)c1Cc1cccc(Cl)c1 | inconclusive: 31.6 µM [cytotoxic, single point]
COc1c(C)cc(S(=O)(=O)Nc2cccc(-c3ccc(N4CCOCC4)nn3)c2)c(C)c1C | inconclusive: 0.316 µM [cytotoxic, full curve, poor fit]
Cc1c(C(=O)Nc2ccc(-c3nnc4n3CCCCC4)cc2)oc2c1ccc1ccccc12 | inconclusive: 35.5 µM [cytotoxic, single point]
CCCOc1ccc(-c2nc3ccccc3c(=O)o2)cc1 | active: 15.8 µM
Cc1cc(N2CCN(C)CC2)nc2ccc(NC(=O)Nc3ccccc3Br)cc12 | inconclusive: 20 µM [cytotoxic, partial curve]
O=C(/C(C=Nc1ccc(Br)cc1)=C(/O)c1ccco1)C(F)(F)F | active: 5.01 µM
O=C(CSc1nccn1-c1cccc(Cl)c1)Nc1cccc(C(F)(F)F)c1 | inactive
CCCSCCCNC(=O)c1ccc2c(c1)nc1n2CCCCC1 | inconclusive: 31.6 µM [cytotoxic, single point]
CC(C)c1cc(-c2nc(-c3ccccc3)no2)n[nH]1 | inconclusive: 10 µM [cytotoxic, partial curve]
CCC(=O)Nc1ccc2nc(SCc3ccc(C)cc3)sc2c1 | inactive
Cc1ccccc1-c1nnc(C2CCN(S(=O)(=O)c3ccc(Cl)cc3)CC2)o1 | inconclusive: 3.98 µM [cytotoxic, partial curve]
Cc1ccc(-n2ncc3c(NC4CCCCC4)ncnc32)cc1 | inconclusive: 4.47 µM [cytotoxic, full curve]
COc1ccc(NS(=O)(=O)c2ccc(NC(=O)N3CCCC3)cc2)cc1 | inactive
COc1cccc(NC(=O)CSc2nc3ccc(NC(=O)c4ccco4)cc3s2)c1 | inconclusive: 31.6 µM [cytotoxic, single point]
O=C(/C(C=Nc1ccc(F)cc1)=C(/O)c1ccco1)C(F)(F)F | active: 7.94 µM
COc1cc2nc(Nc3ccc(C)c(C)c3)nc(N)c2cc1OC | inconclusive: 22.4 µM [cytotoxic, single point]
